Measured values reported in patent publication US20250057968A1, “ANTI-DLL3 ANTIBODY AND PHARMACEUTICAL USE THEREOF, AND ANTIBODY-DRUG CONJUGATE CONTAINING ANTI-DLL3 ANTIBODY” (Jiangsu Hengrui Pharmaceuticals Co., Ltd., priority 2021, published 2025).

Columns and labels:
human DLL3 = molecular target: T1, human DLL3 (Homo sapiens, UniProt Q9NYJ7); assay: Biacore antibody affinity assay, human DLL3; format: binding
T1 construct: purchased ACRO DLL3-H52H4
T1 sequence (Q9NYJ7 27-492 limits assumed): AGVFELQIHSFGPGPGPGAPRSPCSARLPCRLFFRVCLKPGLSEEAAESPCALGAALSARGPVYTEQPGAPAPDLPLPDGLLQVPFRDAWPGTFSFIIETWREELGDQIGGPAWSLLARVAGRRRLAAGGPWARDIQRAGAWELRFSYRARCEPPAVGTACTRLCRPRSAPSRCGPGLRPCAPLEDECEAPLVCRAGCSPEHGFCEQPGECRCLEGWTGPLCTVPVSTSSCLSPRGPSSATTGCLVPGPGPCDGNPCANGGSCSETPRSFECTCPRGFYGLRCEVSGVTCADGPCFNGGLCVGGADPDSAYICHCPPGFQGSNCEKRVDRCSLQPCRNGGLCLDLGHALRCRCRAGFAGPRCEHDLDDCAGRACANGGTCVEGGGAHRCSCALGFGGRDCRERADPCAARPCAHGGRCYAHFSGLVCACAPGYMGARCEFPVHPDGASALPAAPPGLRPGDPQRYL
Description: Test antibodies were affinity-captured with a Protein A biosensor chip (Cat. #29127556, Cytiva) for 18 seconds, and then the antigens human DLL3 (ACRO, DLL3-H52H4), cynomolgus monkey DLL3 (KACTUS, DLL-RM103), and mouse DLL3 (KACTUS, DLL-MM103) were allowed to flow over the surface of the chip for 180 seconds, followed by 600 seconds of dissociation. Reaction signals were detected in real time using a Biacore 8K (Cytiva) instrument to obtain association and dissociation curves. After the dissociation in each experimental cycle, the biosensor chip was washed and regenerated with a 10 mM glycine-hydrochloric acid solution (pH 1.5) (Cat. #BR-1003-54, Cytiva). A 1:1 model was fit to the data. The results are shown in Table 12-1, Table 12-2, and Table 12-3.

HT-29 (−) = assay: Toxicity of ADCs to cells with different DLL3 expression levels, HT-29; format: cell-based; details: 6 days, CTG
Experimental: (§1) The experimental procedure was as follows: • a. A cell suspension was prepared in fresh cell culture medium containing 10% FBS and added to a 96-well cell culture plate (Corning, 3903) at 135 μL/well, with columns 1 and 12 containing 135 μL of medium and no cells. The plate was incubated at 37° C. with 5% carbon dioxide for 16 h. • b. First-well working solutions of ADC samples (10×) were prepared in PBS, and with this concentration as the initial concentration, a serial dilution was performed with PBS by a corresponding factor. […] CTG (Promega, G7573) was added at 70 μL/well. The plate was incubated in the dark at room temperature for 10 min, and chemiluminescence was measured on Victor3. Data were processed using GraphPad Prism5, with the X-axis representing antibody or ADC concentration and the Y-axis representing light intensity.
(§2) The plating densities for different cells, first-well working solution concentrations (10×), and dilution factors are shown in Table 14.
(§3) The results are shown in Table 15 and FIG. 4A to FIG. 4E.

U-2OS (−) = assay: Toxicity of ADCs to cells with different DLL3 expression levels, U-2OS; format: cell-based; details: 6 days, CTG
Experimental: as §1, §2, §3

DMS53 (+) = assay: Toxicity of ADCs to cells with different DLL3 expression levels, DMS53; format: cell-based, human; details: 6 days, CTG
Experimental: as §1, §2, §3

DMS53 xenograft tumors = assay: In vivo efficacy in CDX mouse model of DMS53 cells
H1184 xenograft tumors = assay: In vivo efficacy in CDX mouse model of H1184 cells
H1184 (+++) = assay: Toxicity of ADCs to cells with different DLL3 expression levels, H1184; format: cell-based, human; details: 6 days, CTG
Experimental: as §1, §2, §3

[1] = test system: DMS53/DLL3high and U-20S cells (co-culture); details: 6 days, FACS cell count
CHO-K1 (−) = assay: Toxicity of ADCs to cells with different DLL3 expression levels, CHO-K1; format: cell-based; details: 6 days, CTG
Experimental: as §1, §2, §3

B1: hAb6L2H13: humanized antibody of mAb6: hAb6VH13 (SEQ ID NO: 44) + hAb6VL2 (SEQ ID NO: 46), constant regions SEQ ID NO: 28/29 (antibody)
heavy: EVQLVQSGSELKKPGASVKVSCKASGYTFTDYYMNWVKQAPGQGLEWMGIINPYSGVTIYNHKFKGRFALSVDKSSNTAYLQISSLKAEDTAVYYCARQDSLLDYAMDYWGQGTTVTVSS[human IgG1 constant region not written out]
light: DIQMTQSPSSLSASVGDRVTITCHASQGISGNMGWLQQKPGKAPKGLIYHGANLEDGVPSRFSGSGSGADYTLTISSLQPEDFATYYCVQYAQFPYTFGGGTKVEIKRTVAAPSVFIFPPSDEQLKSGTASVVCLLNNFYPREAKVQWKVDNALQSGNSQESVTEQDSKDSTYSLSSTLTLSKADYEKHKVYACEVTHQGLSSPVTKSFNRGEC
ka (human DLL3): 2.1e+06 M⁻¹ s⁻¹ | kd (human DLL3): 0.000803 s⁻¹

B2: hAb6L2H1: humanized antibody of mAb6: hAb6VH1 (SEQ ID NO: 32) + hAb6VL2 (SEQ ID NO: 46), constant regions SEQ ID NO: 28/29 (antibody)
heavy: EVQLVQSGAEVKKPGASVKVSCKASGYTFTDYYMNWVRQAPGQRLEWMGIINPYSGVTIYNHKFKGRVTITVDKSASTAYMELSSLRSEDTAVYYCARQDSLLDYAMDYWGQGTTVTVSS[human IgG1 constant region not written out]
light: DIQMTQSPSSLSASVGDRVTITCHASQGISGNMGWLQQKPGKAPKGLIYHGANLEDGVPSRFSGSGSGADYTLTISSLQPEDFATYYCVQYAQFPYTFGGGTKVEIKRTVAAPSVFIFPPSDEQLKSGTASVVCLLNNFYPREAKVQWKVDNALQSGNSQESVTEQDSKDSTYSLSSTLTLSKADYEKHKVYACEVTHQGLSSPVTKSFNRGEC
ka (human DLL3): 709000 M⁻¹ s⁻¹ | kd (human DLL3): 0.00155 s⁻¹

B3: hAb6L1H3: humanized antibody of mAb6: hAb6VH3 (SEQ ID NO: 34) + hAb6VL1 (SEQ ID NO: 45), constant regions SEQ ID NO: 28/29 (antibody)
heavy: EVQLVQSGAEVKKPGASVKVSCKASGYTFTDYYMNWVRQAPGQRLEWIGIINPYSGVTIYNHKFKGRATLTVDKSANTAYMELSSLRSEDTAVYYCARQDSLLDYAMDYWGQGTTVTVSS[human IgG1 constant region not written out]
light: DIQMTQSPSSLSASVGDRVTITCHASQGISGNMGWLQQKPGKAPKGLIYHGANLEDGVPSRFSGSGSGTDFTLTISSLQPEDFATYYCVQYAQFPYTFGGGTKVEIKRTVAAPSVFIFPPSDEQLKSGTASVVCLLNNFYPREAKVQWKVDNALQSGNSQESVTEQDSKDSTYSLSSTLTLSKADYEKHKVYACEVTHQGLSSPVTKSFNRGEC
ka (human DLL3): 812000 M⁻¹ s⁻¹ | kd (human DLL3): 0.00224 s⁻¹

B4: hAb6L1H1: humanized antibody of mAb6: hAb6VH1 (SEQ ID NO: 32) + hAb6VL1 (SEQ ID NO: 45), constant regions SEQ ID NO: 28/29 (antibody)
heavy: EVQLVQSGAEVKKPGASVKVSCKASGYTFTDYYMNWVRQAPGQRLEWMGIINPYSGVTIYNHKFKGRVTITVDKSASTAYMELSSLRSEDTAVYYCARQDSLLDYAMDYWGQGTTVTVSS[human IgG1 constant region not written out]
light: DIQMTQSPSSLSASVGDRVTITCHASQGISGNMGWLQQKPGKAPKGLIYHGANLEDGVPSRFSGSGSGTDFTLTISSLQPEDFATYYCVQYAQFPYTFGGGTKVEIKRTVAAPSVFIFPPSDEQLKSGTASVVCLLNNFYPREAKVQWKVDNALQSGNSQESVTEQDSKDSTYSLSSTLTLSKADYEKHKVYACEVTHQGLSSPVTKSFNRGEC
ka (human DLL3): 798000 M⁻¹ s⁻¹ | kd (human DLL3): 0.00225 s⁻¹

B5: hAb6L1H2: humanized antibody of mAb6: hAb6VH2 (SEQ ID NO: 33) + hAb6VL1 (SEQ ID NO: 45), constant regions SEQ ID NO: 28/29 (antibody)
heavy: EVQLVQSGAEVKKPGASVKVSCKASGYTFTDYYMNWVRQAPGQRLEWMGIINPYSGVTIYNHKFKGRVTLTVDKSANTAYMELSSLRSEDTAVYYCARQDSLLDYAMDYWGQGTTVTVSS[human IgG1 constant region not written out]
light: DIQMTQSPSSLSASVGDRVTITCHASQGISGNMGWLQQKPGKAPKGLIYHGANLEDGVPSRFSGSGSGTDFTLTISSLQPEDFATYYCVQYAQFPYTFGGGTKVEIKRTVAAPSVFIFPPSDEQLKSGTASVVCLLNNFYPREAKVQWKVDNALQSGNSQESVTEQDSKDSTYSLSSTLTLSKADYEKHKVYACEVTHQGLSSPVTKSFNRGEC
ka (human DLL3): 787000 M⁻¹ s⁻¹ | kd (human DLL3): 0.00173 s⁻¹

B6: ADC-2: antibody-drug conjugate of antibody Hu100 with compound L-9 (ecteinascidin derivative linker-drug), DAR n=3.72-4.88 (conjugate)
heavy: EVQLVESGGGLVKPGGSLRLSCAASGFTFSDSGMHWIRQAPGKGLEWVSYISSGSSTIHYADTVKGRFTISRDNAKNSLYLQMNSLRAEDTAVYYCASPLYYYGRSYNAVAYWGQGTTVTVSS[human IgG1 constant region not written out]
light: DIQMTQSPSSLSASVGDRVTITCHASQNINVWLSWYQQKPGKVPKLLIYKASDLHTGVPSRFSGSGSGTDFTLTISSLQPEDVATYYCQQGQSYPLTFGGGTKVEIKRTVAAPSVFIFPPSDEQLKSGTASVVCLLNNFYPREAKVQWKVDNALQSGNSQESVTEQDSKDSTYSLSSTLTLSKADYEKHKVYACEVTHQGLSSPVTKSFNRGEC
killing of DLL3-negative HT-29 cells (in words) (HT-29 (−)): cannot kill | killing of DLL3-negative U-20S cells (in words) (U-2OS (−)): cannot kill | Imax (%) (DMS53 (+)): 99.37% | Day-18 TGI (%) (DMS53 xenograft tumors; 1.8 mg/kg intraperitoneally once a week, 2 administrations, Balb/c mouse): 58.71% | inhibition of growth of subcutaneous xenograft tumors of DMS53 cells (in words) (DMS53 xenograft tumors; dose of 1.8 mpk): significantly inhibit the growth | Day-18 TGI (%) (H1184 xenograft tumors; 1.8 mg/kg intraperitoneally once a week, 3 administrations, NDG mouse): 107% | inhibition of growth of H1184 xenograft tumors (in words) (H1184 xenograft tumors; dose of 1.8 mpk): significantly inhibit the growth | Imax (%) (H1184 (+++)): 99.71% | bystander cytotoxic effect (in words) [1]: significant bystander cytotoxic effects | killing of DLL3-negative CHO-K1 cells (in words) (CHO-K1 (−)): cannot kill

B7: M6CHI: anti-DLL3 chimeric antibody: mAb6 variable regions, human IgG1 (SEQ ID NO: 28) and κ (SEQ ID NO: 29) constant regions (antibody)
heavy: EVQLQQSGPVLVKPGASVKMSCKASGYTFTDYYMNWVKQSHGKSLEWIGIINPYSGVTIYNHKFKGKATLTVDKSSNTAYMELNSLTSEDSAVYYCARQDSLLDYAMDYWGQGTSVTVSS[human IgG1 constant region not written out]
light: DILMTQSPSSMSVSLGDTVSITCHASQGISGNMGWLQQKPGKSFKGLIYHGANLEDGVPSRFSGSGSGADYSLTISSLESEDFADYYCVQYAQFPYTFGGGTKLEIKRTVAAPSVFIFPPSDEQLKSGTASVVCLLNNFYPREAKVQWKVDNALQSGNSQESVTEQDSKDSTYSLSSTLTLSKADYEKHKVYACEVTHQGLSSPVTKSFNRGEC
ka (human DLL3): 965000 M⁻¹ s⁻¹ | kd (human DLL3): 0.000657 s⁻¹
